Structures are written as SMILES.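 Assay format: 96-well plates, 48-hour exposure. GI50 is the concentration that inhibits growth by half.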 The source made the active and inactive calls. No stated cut-off is given here; in the data, active = GI50 up to about 1.1 µM and inactive = higher.

The assay has as its system NCI-H322M. Description: NCI tumour cell line growth inhibition, 48 h.
As for `OC1(c2ccc(Cl)cc2)c2c(c3ccccc3c3ccccc23)C2=NCCN21` (stereo not given), the GI50 is inactive: 19.8 µM.
As for `COc1ccc2oc(=N)c(C(=O)Nc3ccccc3)cc2c1`, the figure is inactive: 42.6 µM.
With `Cc1nc2ccc(NCCN(C)C)c3c(=O)c4ccccc4n1c23` the figure was inactive: 1.79 µM; with `O=[N+]([O-])/C(C(Cl)=C(Cl)Cl)=C1\Nc2ccccc2O1`, inactive: > 100 µM.
As for `O=[N+]([O-])C(/C=C(\Cl)[N+](=O)[O-])=C1Nc2ccccc2N1`, the figure is inactive: > 100 µM; as for `Cc1c(N2C(=O)/C(=C/C=C/c3ccccc3)N=C2c2ccccc2)c(=O)n(-c2ccccc2)n1C`, inactive: 57 µM.
On to `COc1ccc(N[C@H](C[S+]([O-])c2ccc(C)cc2)C(F)(F)C(F)(F)F)cc1` (stereo not given in full), for which the GI50 is inactive: > 100 µM.
As for `O=C1c2cc3c(cc2CC12Cc1ccc4c(c1C2=O)CCC4)CCCC3` (stereo not given), the figure is inactive: > 100 µM; as for `CC(C)(CO)NC(=O)c1cccc(C(=O)NC(C)(C)CO)c1Br`, inactive: > 100 µM.
With `CCOC(=O)CCn1[nH]c(=O)c(Cl)c(Cl)c1=O` the figure was inactive: > 100 µM; with `CN1CCC(CNC(=O)CCCCCCCCC(=O)NCC2(c3ccccc3)CCN(C)CC2)(c2ccccc2)CC1`, inactive: > 100 µM; with `Cn1c2ccc([N+](=O)[O-])cc2c(=O)n1Cc1ccccc1F`, inactive: > 100 µM.
As for `O=C1NC(O)c2cc3ccccc3cc2O1` (stereo not given), the figure is inactive: 47.4 µM; as for `SC1=NC2=C(CSC/C2=C\c2cccc(Br)c2)C(c2cccc(Br)c2)N1` (stereo not given), inactive: > 100 µM.
As to `Cc1c2c(n(CCc3ccc(Cl)cc3)c1C)NN=C(C#N)S2(=O)=O`, the GI50 was inactive: > 100 µM.
As for `CC(=O)O[C@H]1CC[C@@]2(C)C(=CC[C@@H]3[C@@H]2CC[C@]2(C)C(=O)/C(=C\c4ccccc4)C[C@@H]32)C1`, the figure is inactive: > 100 µM.
With `COC(=O)C1=COC2OC3CC1C2C(C)O3` (stereo not given) the figure was inactive: > 100 µM.
As for `CN1C=C(C(N)=O)C2CC(O)[C@@](NC(=O)CS(N)(=O)=O)(C(=O)O)C2C1` (stereo not given in full), the figure is inactive: 3.64 µM.
`Cc1cc(Cl)ccc1/N=C1/NC(=O)C(CC(=O)Nc2cccc(C)c2C)S1` (stereo not given): the GI50 was inactive: 31.8 µM.
As for `O=C(Nc1ccn(CCO)c(=O)n1)c1ccccc1`, the figure is inactive: > 100 µM; as for `N#Cc1c(Cl)cc(Cl)n2c1nc1ccccc12`, inactive: 21.6 µM; as for `COn1oc(=O)c2ccccc21`, inactive: > 100 µM.
Turning to `C#CCN(Cc1ccc2nc(-c3ccccc3)c(Cl)nc2c1)c1ccc(F)cc1`, the GI50 is inactive: 89.7 µM.
With `Cc1cc(Cl)cc2c1NC(=O)C2(O)CC(=O)c1ccco1` (stereo not given), the GI50 is inactive: > 55.7 µM.
As for `CN(C)CCNC(=O)Cn1ccc(=O)c2ccc([N+](=O)[O-])cc21`, the figure is inactive: > 100 µM.
With `COc1ccc(-c2nnc(-c3ccncc3)o2)cc1` the figure was inactive: > 100 µM; with `CC1=C(C(=O)N[C@@H](CC(C)C)C(=O)O)N2C(=O)[C@@H](NC(=O)C(N)c3ccccc3)[C@H]2SC1` (stereo not given in full), inactive: > 100 µM.
With `C1CCC2(CC1)O[C@@H]1[C@@H](O2)[C@@H](O[C@H]2O[C@@H]3COC4(CCCCC4)O[C@H]3[C@@H]3OC4(CCCCC4)O[C@@H]23)O[C@@H]2COC3(CCCCC3)O[C@@H]12` the figure was inactive: > 100 µM; with `C[N+]1([O-])[C@H]2CC(OC(=O)[C@H](CO)c3ccccc3)C[C@H]1[C@H]1O[C@H]12` (stereo not given in full), inactive: > 100 µM.
For the molecule `O=P(CCOc1ccccc1OCCP(=O)(c1ccccc1)c1ccc2c(c1)OCCOCCOCCOCCO2)(c1ccccc1)c1ccc2c(c1)OCCOCCOCCOCCO2` (stereo not given), the GI50 is inactive: > 100 µM.
As for `c1ccc(C2=NCCN2)c(C2=NCCN2)c1`, the figure is inactive: > 100 µM.
With `CC1CC2C3CC(F)C4=CC(=O)C=CC4(C)C3(F)C(O)CC2(C)C1(O)C(=O)COC(=O)C(C)(C)C` (stereo not given) the figure was inactive: > 100 µM; with `CC12CCC([C@H](Nc3cc(C(F)(F)F)cc(C(F)(F)F)c3)C1=O)C2(C)C` (stereo not given in full), inactive: > 100 µM.
As for `O=C1Sc2ccccc2NC1=C(C(=O)c1ccccc1)C(=O)c1ccccc1`, the GI50 is inactive: 31.3 µM.
With `CCN(CC)CCn1c(=O)c2c(C)c3oc4ccccc4oc3c(C)c2c1=O`, the GI50 is inactive: > 100 µM.
As for `O=C1C(=O)c2ccccc2C=C1[N+](=O)[O-]`, the figure is inactive: > 100 µM; as for `CCOC(=O)c1csc(NC(=O)C(C)N2CCCCC2)n1` (stereo not given), inactive: > 100 µM; as for `CCOC(=O)N1C=NC23C(c4ccccc4)C(c4ccccc4)C12C(=O)N(C)C(=O)N3C` (stereo not given), inactive: > 100 µM.
With `CCCNC(=O)Nc1c([N+](=O)[O-])cc(C(F)(F)F)cc1[N+](=O)[O-]` the figure was inactive: > 100 µM; with `O=C1CSC(/C=C/c2ccccc2)N1c1nc2cc3sc(N4C(=O)CSC4/C=C/c4ccccc4)nc3cc2s1` (stereo not given), inactive: 13.7 µM.
As for `CC(C)=CCC/C(C)=C/CC/C(C)=C/CC/C(=C/CC/C(C)=C\CC/C(C)=C/CC/C(C)=C/CC/C(C)=C/Cc1cc(O)ccc1O)CO`, the figure is inactive: 9.68 µM; as for `COc1cc([N+](=O)[O-])ccc1NC(=O)C(F)(F)F`, inactive: > 100 µM; as for `CCCCNC(=S)Nc1nc(C(=O)NNC(=S)NC2CCCCC2)cs1`, inactive: > 100 µM.
As to `CCOC(=O)/C(=C\NC#N)c1nc2ccccc2[nH]1`, the GI50 is inactive: > 100 µM.
As for `Cc1ccc(OC(=O)N2C/C(=C\c3ccccc3)C(=O)/C(=C/c3ccccc3)C2)cc1`, the figure is inactive: > 100 µM; as for `CSC(=S)N(C)c1nc(N(C)C)s[s+]1`, inactive: > 100 µM.
With `C=C1C[C@@H]2C[C@@H](C)CC(O)[C@]2(CCCN)C1O` (stereo not given in full) the figure was inactive: > 100 µM; with `CCOC(=O)c1cc(Cl)ccc1OC(N)=O`, inactive: > 100 µM.
Consider `Cc1cc(S(=O)(=O)[N-]/C(=N/S(=O)(=O)c2ccc(Cl)cc2)[n+]2ccc(N(C)C)cc2)c(S)cc1Cl`, for which the GI50 is inactive: 55.3 µM.
For the molecule `COc1nn(Cc2ccccc2F)c2ccc([N+](=O)[O-])cc12`, the GI50 is inactive: > 100 µM.
As for `C=C=C(Sc1ccccc1)C(C)(C)OC(C)=O`, the figure is inactive: 20.4 µM; as for `CC1=C(C(=O)NCc2ccccc2)C(c2ccco2)C(C(=O)NCc2ccccc2)=C(C)N1`, inactive: 65.5 µM.
Regarding `Clc1nc2c(N3CCCC3)nc(N3CCNCC3)nc2[nH]1`, the GI50 was inactive: 16.2 µM.
With `COc1ccc(OC)c(NC(=O)C(=O)C(C(=O)c2ccccc2F)C2OC(=O)c3ccccc32)c1` (stereo not given) the figure was inactive: 30.6 µM; with `CC1OC(OCC2OC(Oc3c(-c4ccc(O)cc4)oc4cc(O)cc(O)c4c3=O)C(OC3OC(C)C(O)C(O)C3O)C(O)C2O)C(O)C(O)C1O` (stereo not given), inactive: > 100 µM.
With `NC(CSC(=O)c1ccccc1)C(=O)O` (stereo not given) the figure was inactive: > 100 µM.
As for `CCCCn1/c(=N/C(=S)N(C)C)ss/c1=N\C(=S)N(C)C`, the figure is inactive: > 100 µM; as for `Cc1cccc2nc3cccc(C(=O)NCCN(C)C)c3nc12`, active: 0.845 µM; as for `COC(=O)Cc1cc(O)c(C/C=C(\C)CC/C=C(\C)C(O)C(=O)C=C(C)C)cc1O` (stereo not given), inactive: 31.7 µM.
`CCCCC1(N=[N+]=[N-])C(=O)c2cccc3c2N(CCC3)C1=O` (stereo not given): the GI50 is inactive: > 100 µM.
With `Cc1cc(C)c(-n2[nH]c(=O)n(C)c2=O)c(C)c1` the figure was inactive: > 100 µM; with `O=c1cc[nH]c2c1ccc1ncccc12`, inactive: > 100 µM.
With `O=C(Nc1ccccc1)N1CCN(C(=O)Nc2ccccc2)C1=S` the figure was inactive: 40.4 µM; with `Cc1cc2nc3c(C(O)CO)nn(-c4ccccc4)c3nc2cc1C` (stereo not given), inactive: 17.3 µM.
As for `CN[C@@H](C)[C@@H](NC)c1ccccc1`, the figure is inactive: > 100 µM; as for `CC(=O)/N=C1\N/C(=C/c2cc([N+](=O)[O-])ccc2O)CN1C`, inactive: > 100 µM.
Take `CCN(CC)C(=O)C(C)n1cc(C)c(=O)[nH]c1=O` (stereo not given): the GI50 was inactive: > 100 µM.
As for `O=C1N[C@@H]([C@H](CCCCCO)OC(=O)c2ccccc2)CO1`, the figure is inactive: > 100 µM.
Regarding `CCOC(=O)c1nc2cc(C(F)(F)F)ccc2nc1Oc1ccc(F)cc1`, the GI50 was inactive: > 100 µM.
In the case of `Cc1ccc(C(=O)Nc2ccc(S(=O)(=O)O)c3cc(S(=O)(=O)O)cc(S(=O)(=O)O)c23)cc1N`, the GI50 is inactive: > 100 µM.
As for `O=S(=O)(O)c1ccc(-c2c3nc(c(-c4ccc(S(=O)(=O)O)cc4)c4ccc([nH]4)c(-c4ccc(S(=O)(=O)O)cc4)c4nc(c(-c5ccc(S(=O)(=O)O)cc5)c5ccc2[nH]5)C=C4)C=C3)cc1`, the GI50 was inactive: 17.7 µM.
For `C=C1CCCC2[C@](C)(CC3=C(O)C(=O)C=C(OC)C3=O)[C@@H](C)CC[C@]12C` (stereo not given in full), the GI50 is inactive: 3.56 µM.
With `CC(C(=O)C(C)O[Si](c1ccccc1)(c1ccccc1)C(C)(C)C)=P(c1ccccc1)(c1ccccc1)c1ccccc1` (stereo not given) the figure was inactive: 3.65 µM; with `CC1ON2CCCC2[C@H]1C(=O)N1C2CC3CCC2(CS1(=O)=O)C3(C)C` (stereo not given in full), inactive: > 100 µM.
With `CC(C)=CCCC(C)[C@H]1CC(O)C2(C)C3=CCC4C(C)(C)[C@@H](O)CC[C@]4(C)C3=CC[C@]12C` (stereo not given in full) the figure was inactive: 5.5 µM.
`O=C1OC(c2ccc(O)c(F)c2)(c2ccc(O)c(F)c2)c2cccc3cccc1c23`: the GI50 is inactive: 16.5 µM.
With `COc1ccc(C2C(Cl)C(=O)N2NC(=O)c2ccccc2O)cc1OC` (stereo not given), the GI50 is inactive: 43.5 µM.
With `CC(=O)O[C@@H]1C2=C(C3=C([O-])C4=CC=CC(=O)C4C(=O)C3=C2[N+]#N)[C@H](OC(C)=O)[C@@H](OC(C)=O)[C@]1(C)O` (stereo not given in full) the figure was active: 0.615 µM; with `Nc1ccccc1SCc1csc(-c2ccc(Cl)cc2)n1`, inactive: 39.8 µM; with `N/C(S)=N/N=C/c1cc(CN2CCOCC2)c(N)cn1`, inactive: 39.8 µM.

Values taken from ChEMBL document CHEMBL1201862, “PubChem BioAssay data set” (2004).
